Assay results from PubChem BioAssay AID256 (DTP/NCI, 2004).
Several values for one entry are separate records, joined by “and”; a condition that tells them apart may be missing. Equal entries are not always repeated. Inconclusive results and toxic doses are left out.

Tested on: CD2F1 mice, L1210 leukemia ip, survival T/C
Assay: NCI In Vivo Anticancer Drug Screen. Data for tumor model L1210 Leukemia (intraperitoneal) in CD2F1 (CDF1) mice
Details: endpoint: median survival time, schedule: Q01DX009 (ip), vehicle: saline, higher = longer survival
In short: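 Read-out first: treated-group measurement over vehicle-control measurement, expressed as a ratio. Animals bore a transplanted tumor line and were dosed with compound or vehicle.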

## COc1cc2c(c(OC)c1OC)-c1ccc(OC)c(=O)cc1[C@@H](N)CC2
dose: 1.5 mg/kg/injection
  T/C: 116 % of control
dose: 3.0 mg/kg/injection
  T/C: 121 % of control
dose: 6.0 mg/kg/injection
  T/C: 154 % of control and 160 % of control
dose: 12.0 mg/kg/injection
  T/C: 172 % of control and 181 % of control
dose: 24.0 mg/kg/injection
  T/C: 111 % of control
